# Laboratory results taken from PubChem BioAssay (NCATS).
# The inconclusive results got no clear call from the source; some entries with a clear call stand among them for comparison. Potencies beside an inconclusive call are fits to weak or partial responses and may not hold up. Active and inactive are the calls of the source. Calls follow the shape of the dose curve; as a rule, active = well fitted inhibition curve with a large enough effect; inconclusive = small, poorly fitted or top-dose-only effect; inactive = no such curve, though single readings can be large or run the other way.
# Target: Pyruvate kinase PKM (Homo sapiens) (UniProt P14618)
# Sequence of UniProt P14618 (P14618 whole entry, looked up): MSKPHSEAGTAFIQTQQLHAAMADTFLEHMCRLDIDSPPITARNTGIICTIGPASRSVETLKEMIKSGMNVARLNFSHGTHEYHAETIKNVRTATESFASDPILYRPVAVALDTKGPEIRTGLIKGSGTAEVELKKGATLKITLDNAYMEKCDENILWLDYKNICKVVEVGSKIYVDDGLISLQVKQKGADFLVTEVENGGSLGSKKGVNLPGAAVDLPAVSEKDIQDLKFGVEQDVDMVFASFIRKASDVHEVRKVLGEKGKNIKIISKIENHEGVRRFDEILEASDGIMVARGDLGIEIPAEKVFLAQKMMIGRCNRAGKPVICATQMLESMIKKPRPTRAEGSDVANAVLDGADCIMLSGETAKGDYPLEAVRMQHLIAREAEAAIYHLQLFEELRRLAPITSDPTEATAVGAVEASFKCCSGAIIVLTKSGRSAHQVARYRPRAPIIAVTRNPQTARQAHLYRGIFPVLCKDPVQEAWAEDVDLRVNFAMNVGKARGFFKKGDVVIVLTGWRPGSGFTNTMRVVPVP
# Experiment: qHTS Assay for Inhibitors of Human Muscle Pyruvate Kinase (AID 958)
# Conditions: purified human PKM enzyme activity
# Outline: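 PKM2, human, >95% pure, 0.1 nM; PEP 0.5 mM (Km), ADP 0.1 mM; 50 mM imidazole pH 7.2, 50 mM KCl, 0.01% Tween 20, 0.05% BSA; 1 h RT; luciferase luminescence readout.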
row,SMILES,Potency
1,Nc1ccc(-c2ccc3ccccc3n2)cc1,active: 12.6 µM
2,O=c1c2ccccc2nc2n1CCc1c-2[nH]c2ccccc12,"inconclusive: 3.16 µM [inhibitor, full curve]"
3,O=c1c(-c2ccc(O)cc2)coc2cc(O)cc(O)c12,"inconclusive: 25.1 µM [inhibitor, partial curve]"
4,COc1ccc(/C=C/C(=O)Nc2ccccc2C(=O)O)cc1OC,active: 20 µM
5,Cn1ccc2cc3c(cc21)CCN3C(=O)Nc1cccnc1,active: 6.31 µM
6,Nc1c(S(=O)(=O)O)cc(Nc2ccc(Nc3nc(Cl)nc(Nc4ccc(S(=O)(=O)O)cc4)n3)c(S(=O)(=O)O)c2)c2c1C(=O)c1ccccc1C2=O,"inconclusive: 20 µM [inhibitor, partial curve]"
7,O=C(Nc1ccc([N+](=O)[O-])cc1Cl)c1cc(Cl)ccc1O,active: 3.16 µM
8,O=C(O)c1cccnc1Nc1cccc(C(F)(F)F)c1,"inconclusive: 0.0251 µM [inhibitor, full curve, poor fit]"
9,O=c1c(-c2ccc(O)cc2)coc2cc(O)ccc12,"inconclusive: 25.1 µM [inhibitor, partial curve]"
10,O=C(Nc1cccc(C(=O)Nc2ccc(S(=O)(=O)O)c3cc(S(=O)(=O)O)cc(S(=O)(=O)O)c23)c1)Nc1cccc(C(=O)Nc2ccc(S(=O)(=O)O)c3cc(S(=O)(=O)O)cc(S(=O)(=O)O)c23)c1,"inconclusive: 25.1 µM [inhibitor, single point]"
11,CN=c1nc(-c2ccccc2)n(-c2ccccc2)s1,active: 25.1 µM
